{"source": "the supplement of paper PMC8728848", "binders": {"B1": {"name": "PX9961U-pdi-543-24-543 (Parabacteroides distasonis) (protein)", "chain": "EEPVGEFLPGQVESEENIEGIVTGAYAVLDGYYASDAINSGCSNWQFGDVVSDDAYKGGGGTGDQNQIHLMEIFNANPTGIDFEARWAALYEGIKRCNQAIRLLNGSEVKNKEQRLAEMRFLRGHYYFNLKIIYNQIPWIDETLVDPNEYNKKSNIEFSSDQLWEKILEEFSAAYKVLPESQADYGRPTKMAARAYMAKVYLYQSKWKECLEACDEVIQSGKYELFPDFRNVFLPENDNCSEIIFAIQLSINDGSPNNENGSYGDRLLPPGGPYPVYGFLRPTQNLVNAYKTDVKGLPYNDGKDVSENDYVDVRLDHTLARPNIPFMDVQLYDWTPREASVYGPYSPKKRLVSLNSTYYSPIWPYVNALNFYVIRYADLLLWRAEAAIETGDLETGRKYINMIRERAKNTQHVKTMDQSQDAANYKVGVYDEPFKSKNEAVQALRMERRLEMAHEGIRFFDLVRWGVADEVINAYIAKEKVFRSHLQNAHFVKGKHEYFPIPQSMIDICGTEVMKQNPGY"}}, "assay_in_all_cases": "glycan array binding signal (z-score within array); higher = stronger binding", "settings_in_all_cases": "glycan notation: IUPAC condensed, linker removed", "key": {"Fuc(a1-2)Gal": {"molecular_target": "Fuc(a1-2)Gal", "in_short": "(§1)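 Glycan array data were curated from 3228 arrays in the Consortium for Functional Glycomics database and kept only where the protein sequence was available. Glycan names were converted to IUPAC-condensed notation, and columns mapping to the same glycan were averaged. The binding signal is a within-array Z-score, averaged across arrays of the same protein sequence at different concentrations or buffers and across linkers. Negative Z-scores can be read as non-binding.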"}, "Fuc(a1-2)Gal(b1-3)GalNAc": {"molecular_target": "Fuc(a1-2)Gal(b1-3)GalNAc", "in_short": "as §1"}, "[1]": {"molecular_target": "Fuc(a1-2)Gal(b1-3)GalNAc(a1-3)[Fuc(a1-2)]Gal(b1-4)Glc", "in_short": "as §1"}, "[2]": {"molecular_target": "Fuc(a1-2)Gal(b1-3)GalNAc(a1-3)[Fuc(a1-2)]Gal(b1-4)GlcNAc", "in_short": "as §1"}, "[3]": {"molecular_target": "Fuc(a1-2)Gal(b1-3)GalNAc(b1-3)Gal", "in_short": "as §1"}, "[4]": {"molecular_target": "Fuc(a1-2)Gal(b1-3)GalNAc(b1-3)Gal(a1-4)Gal(b1-4)Glc", "in_short": "as §1"}, "[5]": {"molecular_target": "Fuc(a1-2)Gal(b1-3)GalNAc(b1-4)[Neu5Ac(a2-3)]Gal(b1-4)Glc", "in_short": "as §1"}, "Fuc(a1-2)Gal(b1-3)GlcNAc": {"molecular_target": "Fuc(a1-2)Gal(b1-3)GlcNAc", "in_short": "as §1"}, "[6]": {"molecular_target": "Fuc(a1-2)Gal(b1-3)GlcNAc(b1-2)Man(a1-3)[Fuc(a1-2)Gal(b1-3)GlcNAc(b1-2)Man(a1-6)]Man(b1-4)GlcNAc(b1-4)GlcNAc", "in_short": "as §1"}, "[7]": {"molecular_target": "Fuc(a1-2)Gal(b1-3)GlcNAc(b1-2)Man(a1-3)[Fuc(a1-2)Gal(b1-3)GlcNAc(b1-2)Man(a1-6)]Man(b1-4)GlcNAc(b1-4)[Fuc(a1-6)]GlcNAc", "in_short": "as §1"}, "[8]": {"molecular_target": "Fuc(a1-2)Gal(b1-3)GlcNAc(b1-3)Gal(b1-4)Glc", "in_short": "as §1"}, "[9]": {"molecular_target": "Fuc(a1-2)Gal(b1-3)GlcNAc(b1-3)GalNAc", "in_short": "as §1"}, "[10]": {"molecular_target": "Fuc(a1-2)Gal(b1-3)GlcNAc(b1-3)[Fuc(a1-2)Gal(b1-3)GlcNAc(b1-6)]GalNAc", "in_short": "as §1"}, "[11]": {"molecular_target": "Fuc(a1-2)Gal(b1-3)GlcNAc(b1-3)[Gal(b1-4)GlcNAc(b1-6)]Gal(b1-4)Glc", "in_short": "as §1"}, "[12]": {"molecular_target": "Fuc(a1-2)Gal(b1-3)GlcNAc(b1-3)[Neu5Ac(a2-6)Gal(b1-4)GlcNAc(b1-6)]Gal(b1-4)Glc", "in_short": "as §1"}, "[13]": {"molecular_target": "Fuc(a1-2)Gal(b1-3)GlcNAc6S", "in_short": "as §1"}, "[14]": {"molecular_target": "Fuc(a1-2)Gal(b1-3)[Fuc(a1-4)]GlcNAc", "in_short": "as §1"}, "[15]": {"molecular_target": "Fuc(a1-2)Gal(b1-3)[Fuc(a1-4)]GlcNAc(b1-2)Man(a1-3)[Fuc(a1-2)Gal(b1-3)[Fuc(a1-4)]GlcNAc(b1-2)Man(a1-3)]Man(b1-4)GlcNAc(b1-4)GlcNAc", "in_short": "as §1"}, "[16]": {"molecular_target": "Fuc(a1-2)Gal(b1-3)[Fuc(a1-4)]GlcNAc(b1-2)Man(a1-3)[Fuc(a1-2)Gal(b1-3)[Fuc(a1-4)]GlcNAc(b1-2)Man(a1-6)]Man(b1-4)GlcNAc(b1-4)[Fuc(a1-6)]GlcNAc(b1-4)[Fuc(a1-6)]GlcNAc", "in_short": "as §1"}, "[17]": {"molecular_target": "Fuc(a1-2)Gal(b1-3)[Fuc(a1-4)]GlcNAc(b1-3)[Fuc(a1-3)[Gal(b1-4)]GlcNAc(b1-6)]Gal(b1-4)Glc", "in_short": "as §1"}, "[18]": {"molecular_target": "Fuc(a1-2)Gal(b1-3)[Fuc(a1-4)]GlcNAc(b1-3)[Gal(b1-4)GlcNAc(b1-6)]Gal(b1-4)Glc", "in_short": "as §1"}, "Fuc(a1-2)Gal(b1-4)Glc": {"molecular_target": "Fuc(a1-2)Gal(b1-4)Glc", "in_short": "as §1"}, "Fuc(a1-2)Gal(b1-4)Glc6S": {"molecular_target": "Fuc(a1-2)Gal(b1-4)Glc6S", "in_short": "as §1"}, "Fuc(a1-2)Gal(b1-4)GlcNAc": {"molecular_target": "Fuc(a1-2)Gal(b1-4)GlcNAc", "in_short": "as §1"}, "[19]": {"molecular_target": "Fuc(a1-2)Gal(b1-4)GlcNAc(b1-2)Man", "in_short": "as §1"}, "[20]": {"molecular_target": "Fuc(a1-2)Gal(b1-4)GlcNAc(b1-2)Man(a1-3)[Fuc(a1-2)Gal(b1-4)GlcNAc(b1-2)Man(a1-6)]Man(b1-4)GlcNAc(b1-4)GlcNAc", "in_short": "as §1"}, "[21]": {"molecular_target": "Fuc(a1-2)Gal(b1-4)GlcNAc(b1-2)Man(a1-3)[Fuc(a1-2)Gal(b1-4)GlcNAc(b1-2)Man(a1-6)]Man(b1-4)GlcNAc(b1-4)[Fuc(a1-6)]GlcNAc", "in_short": "as §1"}, "[22]": {"molecular_target": "Fuc(a1-2)Gal(b1-4)GlcNAc(b1-2)[Fuc(a1-2)Gal(b1-4)GlcNAc(b1-4)]Man(a1-3)[Fuc(a1-2)Gal(b1-4)GlcNAc(b1-2)Man(a1-6)]Man(b1-4)GlcNAc(b1-4)GlcNAc", "in_short": "as §1"}, "[23]": {"molecular_target": "Fuc(a1-2)Gal(b1-4)GlcNAc(b1-3)Gal(b1-4)GlcNAc", "in_short": "as §1"}, "[24]": {"molecular_target": "Fuc(a1-2)Gal(b1-4)GlcNAc(b1-3)Gal(b1-4)GlcNAc(b1-2)Man(a1-3)[Fuc(a1-2)Gal(b1-4)GlcNAc(b1-3)Gal(b1-4)GlcNAc(b1-2)Man(a1-6)]Man(b1-4)GlcNAc(b1-4)GlcNAc", "in_short": "as §1"}}, "note": "This is one part of the list."}
{"binder": "B1", "values": [{"measurement": "glycan array binding signal (z-score)", "setting": "Fuc(a1-2)Gal", "value": -0.431}, {"measurement": "glycan array binding signal (z-score)", "setting": "Fuc(a1-2)Gal(b1-3)GalNAc", "value": -0.397}, {"measurement": "glycan array binding signal (z-score)", "setting": "[1]", "value": -0.412}, {"measurement": "glycan array binding signal (z-score)", "setting": "[2]", "value": -0.411}, {"measurement": "glycan array binding signal (z-score)", "setting": "[3]", "value": -0.399}, {"measurement": "glycan array binding signal (z-score)", "setting": "[4]", "value": -0.25}, {"measurement": "glycan array binding signal (z-score)", "setting": "[5]", "value": -0.337}, {"measurement": "glycan array binding signal (z-score)", "setting": "Fuc(a1-2)Gal(b1-3)GlcNAc", "value": -0.324}, {"measurement": "glycan array binding signal (z-score)", "setting": "[6]", "value": 7.29}, {"measurement": "glycan array binding signal (z-score)", "setting": "[7]", "value": -0.341}, {"measurement": "glycan array binding signal (z-score)", "setting": "[8]", "value": -0.353}, {"measurement": "glycan array binding signal (z-score)", "setting": "[9]", "value": -0.396}, {"measurement": "glycan array binding signal (z-score)", "setting": "[10]", "value": 1.45}, {"measurement": "glycan array binding signal (z-score)", "setting": "[11]", "value": 2.71}, {"measurement": "glycan array binding signal (z-score)", "setting": "[12]", "value": -0.068}, {"measurement": "glycan array binding signal (z-score)", "setting": "[13]", "value": 0.244}, {"measurement": "glycan array binding signal (z-score)", "setting": "[14]", "value": -0.46}, {"measurement": "glycan array binding signal (z-score)", "setting": "[15]", "value": -0.341}, {"measurement": "glycan array binding signal (z-score)", "setting": "[16]", "value": -0.292}, {"measurement": "glycan array binding signal (z-score)", "setting": "[17]", "value": -0.209}, {"measurement": "glycan array binding signal (z-score)", "setting": "[18]", "value": -0.272}, {"measurement": "glycan array binding signal (z-score)", "setting": "Fuc(a1-2)Gal(b1-4)Glc", "value": -0.369}, {"measurement": "glycan array binding signal (z-score)", "setting": "Fuc(a1-2)Gal(b1-4)Glc6S", "value": -0.456}, {"measurement": "glycan array binding signal (z-score)", "setting": "Fuc(a1-2)Gal(b1-4)GlcNAc", "value": -0.217}, {"measurement": "glycan array binding signal (z-score)", "setting": "[19]", "value": -0.363}, {"measurement": "glycan array binding signal (z-score)", "setting": "[20]", "value": 2.83}, {"measurement": "glycan array binding signal (z-score)", "setting": "[21]", "value": -0.384}, {"measurement": "glycan array binding signal (z-score)", "setting": "[22]", "value": -0.377}, {"measurement": "glycan array binding signal (z-score)", "setting": "[23]", "value": -0.463}, {"measurement": "glycan array binding signal (z-score)", "setting": "[24]", "value": -0.241}]}
